# Over roughly 110,000 compounds, “z-score” has its median near -0.1; the highest 2% begin near 2. This is one part of the list. The source made the active and inactive calls.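 How the source made its calls: active means z-score in the third read window above 3 or below -3; inactive means the rest.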
# Target: Metabotropic glutamate receptor 8 (Rattus norvegicus) (UniProt P70579)
# Assay: rat mGluR8 modulators via GIRK flux, primary screen, cell-based, thallium flux, HTS (AID 488969)
# Settings: HEK293 rat mGluR8, GIRK (G protein-gated inwardly rectifying potassium channel) thallium flux, FluoZin2; at 10 µM; stronger effect = higher value; submaximal glutamate (EC20) added with thallium
# Chain of UniProt P70579 (P70579 whole entry, looked up): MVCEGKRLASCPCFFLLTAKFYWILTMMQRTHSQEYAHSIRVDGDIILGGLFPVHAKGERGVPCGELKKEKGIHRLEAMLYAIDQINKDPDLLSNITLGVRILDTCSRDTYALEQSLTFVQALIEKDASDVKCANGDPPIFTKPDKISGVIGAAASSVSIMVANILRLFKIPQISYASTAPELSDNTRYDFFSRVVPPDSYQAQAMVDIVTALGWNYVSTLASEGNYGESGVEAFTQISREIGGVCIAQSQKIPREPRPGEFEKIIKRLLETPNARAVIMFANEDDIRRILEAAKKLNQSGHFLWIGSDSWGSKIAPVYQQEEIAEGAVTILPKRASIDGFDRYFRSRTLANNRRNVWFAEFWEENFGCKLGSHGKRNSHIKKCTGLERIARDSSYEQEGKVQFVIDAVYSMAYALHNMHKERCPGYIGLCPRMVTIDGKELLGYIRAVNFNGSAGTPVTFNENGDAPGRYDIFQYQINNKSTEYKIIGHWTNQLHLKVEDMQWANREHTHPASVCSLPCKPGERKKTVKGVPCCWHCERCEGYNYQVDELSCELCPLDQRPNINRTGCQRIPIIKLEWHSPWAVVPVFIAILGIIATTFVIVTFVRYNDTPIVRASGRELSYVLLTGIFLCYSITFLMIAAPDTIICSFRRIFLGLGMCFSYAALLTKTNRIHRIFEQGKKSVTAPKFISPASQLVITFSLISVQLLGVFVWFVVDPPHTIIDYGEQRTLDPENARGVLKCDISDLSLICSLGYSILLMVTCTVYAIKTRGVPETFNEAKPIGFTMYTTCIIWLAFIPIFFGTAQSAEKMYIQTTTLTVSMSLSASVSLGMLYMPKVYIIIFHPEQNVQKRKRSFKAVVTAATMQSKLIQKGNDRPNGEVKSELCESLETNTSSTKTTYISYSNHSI
row,SMILES,z-score
1,Cc1ccc(S(=O)(=O)Oc2ccccc2/C=N/NC(=O)c2nn(C)cc2[N+](=O)[O-])cc1,-0.0644
2,COc1ccc(N2CC(C(=O)Nc3nccs3)CC2=O)cc1 (centres undefined),-0.576
3,COC(=O)c1ccc(NC(=O)CCN2CCCCC2)cc1,-0.167
4,Cc1cccc(/C=C/C(=O)c2ccc(NC3=NCCCS3)cc2)c1,-0.306
5,O=C(NCC(=O)N(c1cnc2ccccc2c1)C(C(=O)NC1CCCC1)c1ccncc1)c1ccco1 (centres undefined),0.282
6,CC1(C)CC(=O)C/C(=N/NC(=O)CCCOc2ccc(Cl)cc2Cl)C1,-0.05
7,N#Cc1ccc(-n2c(-c3ccccc3)nnc2-c2ccccc2)cc1C#N,0.19
8,Nc1nc(CSC(=S)N2CCN(c3ccccc3)CC2)nc(Nc2ccc(F)cc2)n1,-0.156
9,Cc1nc2ccccc2c2oc(C(=O)Nc3ccc4c(c3)OCCO4)cc12,-0.135
10,Cc1ccc(NC2=C(Cl)C(=O)OC2OC(C)C)c(C)c1 (centres undefined),-0.0319
11,CCOc1c2ccc(C(=O)NC3CCCc4ccccc43)cc2nn1C (centres undefined),0.0615
12,COCn1c(COc2ccc3ccccc3c2)nc2ccccc21,-0.203
13,COc1ccc(CCN2C(=O)c3[nH]nc(-c4ccccc4O)c3C2c2cccc(O)c2)cc1OC (centres undefined),1.66
14,COc1ccc(S(=O)(=O)N2CCN(c3nc4ccccc4nc3-n3nc(C)cc3C)CC2)cc1,-0.27
15,COc1ccc(N2CCN(C(=O)CSc3ncnc4c3cnn4-c3ccccc3C)CC2)cc1,-0.36
16,COc1cc(C(=O)OC2CCCCC2=O)cc(OC)c1C (centres undefined),1.1
17,CCCc1nc(SCC(=O)N2c3ccccc3CC2C)c2c(C)c(C)sc2n1 (centres undefined),0.245
18,COc1cccc2cc(C(=O)N3CCN(c4ncccn4)CC3)c(=O)oc12,-0.344
19,Cc1cccc(NC2=NC3(CCCCC3)N=C(N)N2)c1C,0.0252
20,Cc1c(C(=O)OC(C)C)sc(NC(=O)C2CCCO2)c1C(=O)OC(C)C (centres undefined),-0.0386
21,COc1cc(S(=O)(=O)N(Cc2cccs2)CC2CCCO2)ccc1-n1cnnn1 (centres undefined),-0.12
22,Cc1cccc(N(CC(=O)NC2CCCC2)C(=O)CS(=O)CC(=O)Nc2ccc3c(c2)OCO3)c1C (centres undefined),-0.253

row,SMILES,z-score
1,CC1CCN(S(=O)(=O)c2ccc(NC(=O)CN3CCCC(C)C3)cc2)CC1 (centres undefined),0.282
2,COCCCNc1ncnc2ccc(C)cc12,-0.177
3,COc1c(/C=N/NC(N)=S)c(C)nn1-c1ccccc1,-0.095
4,c1ccc2c3nnc4n(c-3nc2c1)CCCS4,-0.272
5,CNC(=S)Nc1ccccc1-c1ccccc1,-0.0706
6,CCOC(=O)Nc1ccc(S(=O)(=O)N2CCOCC2)cc1,-0.614
7,Cc1nnc(SCC(=O)Nc2ccc(N3CCOCC3)cc2)n1-c1ccccc1,-0.401
8,O=C(NCc1ccc(Cl)cc1Cl)C(=O)N1CCCCC1,0.112
9,COC(=O)c1ccc(NC(=S)N2CCN(Cc3ccccc3)CC2)cc1,-0.693
10,Cn1c(SCC(=O)c2ccccc2)nc2cccnc21,0.0229
11,O=C(CCNc1cc(Cl)cc(Cl)c1)c1cccs1,0.0113
12,Cc1cccc(/C=N/NC(=O)Cn2nc(C)cc2C)n1,0.538
13,COC(=O)[C@H](C)NC(=O)Nc1ccc(S(N)(=O)=O)cc1,-0.275
14,Cc1nc(NC(C)c2ccccc2)c2c3c(sc2n1)CCC3 (centres undefined),1.26e-05
15,O=C(CCCN1C(=O)/C(=C/c2cccc(Br)c2)SC1=S)Nc1ccccn1,0.645
16,CCc1cc2c(=O)nc3n(c2s1)Cc1ccccc1/C3=C(/O)c1cccc([N+](=O)[O-])c1,0.539
17,Cc1cc(C(=O)Nc2c(F)cc(F)cc2Br)no1,0.293
18,CCN(CC)CCOC(=O)c1ccc(NC(=O)/C=C/c2cccs2)cc1,-0.262
19,c1nc(COc2nsnc2N2CCOCC2)cs1,-0.000248
20,O=C(CN(CC1CCCO1)S(=O)(=O)c1ccc(S(=O)(=O)NC2CC2)cc1)Nc1ccccc1 (centres undefined),0.0542
21,CC1CCCC(C)N1CCNC(=O)Cn1nc(-c2ccccc2)ccc1=O (centres undefined),0.0773
22,CCn1nnnc1SCC(=O)Nc1nc2ccc(OC)cc2s1,0.462

row,SMILES,z-score
1,COc1cc(SC#N)ccc1N=Cc1c(C)[nH]n(-c2ccc(C)c(C)c2)c1=O,0.116
2,CCCC(NS(=O)(=O)c1ccc(OC)cc1)C(=O)O (centres undefined),0.0385
3,Cc1onc(-c2ccccc2)c1-c1n[nH]c(=S)n1-c1ccc(C(=O)O)cc1,0.0053
4,COc1cc2c(cc1OC)C(c1cc3ccccc3oc1=O)=NC(C)(C)C2,1.03
5,O=[N+]([O-])C(/C=C(\Cl)[N+](=O)[O-])=C1N(Cc2ccc(Cl)nc2)CCN1Cc1ccc(Cl)nc1,-0.212
6,O=C(CCn1c(=S)[nH]c2ccccc2c1=O)NCC1CCCO1 (centres undefined),-0.275
7,N#Cc1nc(-c2cccc(Cl)c2)oc1NCc1cccnc1,-0.665
8,CCCC1=NN(C(=O)CCc2ccccc2O)C(O)(C(F)(F)F)C1 (centres undefined),-0.16
9,Cc1ccc(Cn2c(CN3CCN(C(=O)c4ccco4)CC3)nc3c2c(=O)n(C)c(=O)n3C)cc1,-0.356
10,COc1ccccc1NC(=O)CSc1nc(O)cc(=O)[nH]1,0.596
11,COc1ccc(NC(=O)C2CCCO2)cc1 (centres undefined),0.12
12,CCN(CC)S(=O)(=O)c1ccc(N=Nc2c(C)[nH]n(C(N)=S)c2=O)cc1,0.608
13,COc1cc(C)c(Br)cc1S(=O)(=O)N1CCCC1,0.188
14,CCOc1ccc(NC(=O)c2cc(SC)ccc2Cl)cc1,-0.217
15,CCOC(=O)N1CCN(Cc2nc3c(c(=O)n(C)c(=O)n3C)n2Cc2ccccc2)CC1,-0.452
16,CC(=O)C1=C(C)NC(SCC(N)=O)=C(C#N)C1C (centres undefined),-0.259
17,CCCCN(CCCC)CC(O)CN1C(=O)NC(C)(C)C1=O (centres undefined),-0.194
18,O=C(NCC1CCCO1)C1CCC(=O)N1Cc1ccc(F)cc1 (centres undefined),-0.109
19,O=S(=O)(Cc1ccc(Cl)cc1)c1ccccc1-c1nnc(-c2ccccc2)o1,-0.0704
20,COc1cc(OC)cc(-c2nnc(Nc3nc4c(F)cccc4s3)o2)c1,active: 9.94
21,COc1ccc(-c2cc(C(F)(F)F)nc(N3CCCCC3)n2)cc1OC,1.35
22,COc1ccc(C(=O)c2ccccc2Cl)cc1,-0.198

row,SMILES,z-score
1,O=C(CN1CCC(NC(=O)c2cccc(F)c2)CC1)NCc1ccccc1F,-0.288
2,CN1C(=O)CC(N2CCN(c3ccc(Cl)c(Cl)c3)CC2)C1=O (centres undefined),0.0378
3,COc1ccc(-c2noc(-c3ccco3)n2)cc1OC,0.0385
4,COc1ccc(NC(=O)COc2ccc(/C=N/NC(=O)c3cccnc3)cc2OC)cc1,-0.161
5,COc1cccc(N2CCN(Cc3nc(N)nc(Nc4ccccc4)n3)CC2)c1,-0.209
6,Cn1c(Cc2ccccc2)nnc1SCC(=O)N1CCCCC1,-0.938
7,CCOC(=O)C1CCN(C(=O)c2ccc(N(C)S(C)(=O)=O)cc2)CC1,0.386
8,Cc1ccc(S(=O)(=O)N(Cc2nccn2C)C(C)C)cc1,0.292
9,COc1ccc2oc(C(=O)c3ccccc3)c(N)c2c1,0.111
10,COc1ccc2cc3cc(C(=O)Nc4ccc5c(c4)OCCO5)oc3nc2c1,-0.0193
11,CC(=O)Nc1cccc(NC(=O)CCc2ccccc2)c1,-0.12
12,CCOC(=O)N1CCN(C(=O)c2cn(CCOC)c(=O)c3c2c2ccccc2n3C)CC1,0.0323
13,CC(=O)Nc1ccc(S(=O)(=O)NCC2CCC(C(=O)NCCC(C)C)CC2)cc1 (centres undefined),-0.0933
14,CCOC(=O)C1CCN(C(=O)c2cn(C)c(=O)c3cc(OC)c(OC)cc23)CC1,0.144
15,CCC/C(=N\NC(=O)CNC(=O)/C=C/c1ccco1)c1ccccc1,-0.408
16,Cc1ccc(OCC(=O)N/N=C\c2c(C)[nH]n(-c3ccccc3)c2=O)c([N+](=O)[O-])c1,-0.329
17,COc1ccc(Cl)cc1N(CC(=O)NCC(C)C)S(=O)(=O)c1ccc(C)c([N+](=O)[O-])c1,0.0721
18,COc1cccc(/C=c2\s/c(=C/C(=O)c3ccc(C)cc3)[nH]c2=O)c1OC,1.51
19,Oc1ccc(/C=N/NC2=NCCCCC2)cc1,0.0853
20,CCc1ccc(-c2cc(C(=O)NN3CCOCC3)c3ccccc3n2)cc1,-0.195
21,Cc1ccc(CN2CCc3c(OCC(=O)Nc4cc(C)ccc4C)cccc3C2=O)cc1,-0.206
22,COc1ccc(Cc2nnc(NC(=O)C3CCCO3)s2)cc1OC (centres undefined),-0.138

row,SMILES,z-score
1,COc1ccc(NC(=S)N/N=C2/CCCc3c(C)cc(C)cc32)cc1,0.0188
2,CCC(C)(C)n1nnnc1C(c1cc2cc(OC)c(OC)cc2[nH]c1=O)N1CCc2ccccc21 (centres undefined),-0.106
3,Cn1c(SCC(=O)c2ccc3c(c2)OCO3)nnc1-c1ccccn1,-0.167
4,Cc1nnc(NC(=O)Cc2cccs2)s1,2.4
5,O=C(CCSCCc1ccccn1)Nc1ccc(Br)cn1,-0.244
6,O=c1cc(CSc2nnnn2-c2ccccc2)[nH]c2[nH]n(-c3ccccc3)c(=O)c12,0.363
7,O=C(COC(=O)c1cc(-c2ccco2)nc2ccccc12)NCc1ccccc1,-0.152
8,Cc1cc(C)n(C(=O)c2cccc(S(=O)(=O)N3CCOCC3)c2)n1,-0.0372
9,N#Cc1ccsc1NC(=O)c1ccccn1,0.527
10,CC(C)(C)c1ccc(CN2N=Nc3ccccc3S2(=O)=O)cc1,0.135
11,O=C(O)/C=C/C(=O)Nc1ccccc1C(=O)Nc1ccccc1,0.317
12,CC1CC(C)CN(CC(=O)N2CCCc3c2c(=O)oc2ccc(OCc4ccccc4)cc32)C1 (centres undefined),0.763
13,CC1CCCCC1NC(=O)c1ccc2c(c1)[nH]c(=O)n2C1CCCC1 (centres undefined),-1.9
14,Cc1ccc(S(=O)(=O)ON2C(=O)c3ccccc3C2=O)c(C)c1,-0.357
15,CC(C)CC(C(=O)OCC(=O)Nc1ncc(Cl)cc1Cl)N1C(=O)c2ccccc2C1=O (centres undefined),-0.273
16,COc1ccc(C(=O)c2cc(C(C)=O)c(Nc3ccccc3)s2)cc1,-0.0397
17,CCCc1[nH]nc2c1C(c1ccncc1)C(C#N)=C(N)O2 (centres undefined),0.292
18,CCc1cccc(C)c1NC(=S)NCC(c1cccnc1)N1CCOCC1 (centres undefined),-0.301
19,COc1ccc(C(=O)N[C@H](C(=O)Nc2ccc(OC)nc2)C(C)C)cc1,0.211
20,CCCn1c(-c2cc(OC)c(OC)c(OC)c2)nc2nc3ccccc3nc21,-1.76
21,Cc1ccc(NC(=S)NC2CCN(Cc3ccccc3)CC2)cc1,-0.0128

# Source: PubChem BioAssay AID488969 (Vanderbilt High Throughput Screening Facility, 2010)
